Where “and” joins values, the source holds several entries; their conditions need not be identical. Equal values may be shown once. The campaign covered roughly 420,000 compounds. About 64,000 (15%) were called active. Inconclusive means that the source gave no clear call. Such entries were picked first, then a sample of the others. The call rests on the fitted dose curve; in most records, active means well fitted inhibition curve with a large enough effect; inconclusive means small, poorly fitted or top-dose-only effect; inactive means flat fitted curve, though single readings scatter. Potencies beside an inconclusive call are fits to weak or partial responses and may not hold up.
Test: qHTS for Inhibitors of human tyrosyl-DNA phosphodiesterase 1 (TDP1): qHTS in cells in absence of CPT; further: nearly all actives have a fitted effect of over 55% in size
Settings: DT40 Tdp1-/- hTDP1 cells, no CPT, ATP luminescence, 48 h; activity change, negative = growth inhibition: at 46.2 µM (top of the series)
Procedure, shortened: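 Compound effects on proliferation are scored in DT40 Tdp1-/-;hTDP1 cells in the absence of CPT. ATP levels (CellTiter-Glo luminescence) are recorded after a ≥48 hr, 37 °C incubation.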
On the % scale 0 is the no-effect control and ±100 the full control effect; potency means the concentration at half of the fitted maximal effect; tags describe the fitted curve by direction and shape.

SMILES	Potency	activity change, negative = growth inhibition
NC(=O)c1c(NC(=O)Cn2cnc([N+](=O)[O-])n2)sc2c1CCCC2	inconclusive: 25.9 µM [inhibitor, single point]	–
CC1CCC(C(=O)c2c(O)c3ccccc3oc2=O)CC1 (stereo not given)	active: 18.4 µM	–
COc1ccc(C(CNC(=O)c2ccc(NS(=O)(=O)c3ccc4c(c3)OCCO4)cc2)N(C)C)cc1 (stereo not given)	inconclusive: 29.1 µM [inhibitor, single point]	–
COC(=O)Nc1ccc(S(=O)(=O)NCc2ccccn2)cc1	inconclusive: 18.4 µM [inhibitor, single point]	–
C1=C[C@H]2CC[C@@H]1N(c1ccccc1)O2	inactive	–
C/C(=N\NC(=O)c1ccccc1)c1nc2ccccc2n1C	inactive	–
COc1cc(C)ccc1OCCCCNCc1ccccc1	inconclusive: 29.1 µM [inhibitor, partial curve, poor fit]	–
C(=C\c1sc(Nc2ccccc2)n[n+]1-c1ccccc1)/c1ccccc1	active: 8.2 µM	–
O=C(COC(=O)CC1c2ccccc2CCN1S(=O)(=O)c1ccc(F)cc1)Nc1ccccc1 (stereo not given)	inconclusive: 29.1 µM [inhibitor, single point]	–
C[C@@H](O)CNC(=O)c1[nH]cnc1C(=O)Nc1cccc(Cl)c1	–	inconclusive: 2.4% [inhibitor]
NC(=O)c1ccsc1NC(=O)COC(=O)Cc1ccccc1[N+](=O)[O-]	active: 20.6 µM	–
CN(C)c1ccc(C(=C2c3ccccc3-c3ccccc32)c2ccc(N(C)C)cc2)cc1	inactive	–
CSc1nnc(CCCCCCCCc2nnc(SC)o2)o1	–	inconclusive: -31.5% [inhibitor]
O=C(NCC(O)c1ccccc1)c1ccc(Cl)c(S(=O)(=O)N2CCCC2)c1 (stereo not given)	inconclusive: 11.6 µM [inhibitor, partial curve]	–
CCOC(=O)C1CCCN(S(=O)(=O)c2ccc(Cl)nc2)C1 (stereo not given)	inactive	–
CSCCC(NC(=O)c1ccccc1Br)C(=O)N1CCN(C/C=C/c2ccccc2)CC1 (stereo not given)	inconclusive: 5.17 µM [inhibitor, full curve]	–
COC(=O)c1ccc(OC)c(CSc2nnc(COc3ccc(OC)cc3)o2)c1	inconclusive: 29.1 µM [inhibitor, single point]	–
CCOC(=O)c1cccc(NC(=O)C2(S(=O)(=O)c3ccc(C)cc3)CC2)c1	inconclusive: 25.9 µM [inhibitor, single point]	–
CSCc1cc(N(C)C)nc(SCc2ccc(Cl)c(Cl)c2)n1	inconclusive: 16.4 µM [inhibitor, single point]	–
COc1cnc(SCc2ccc(Cl)cc2)nc1Cl	inconclusive: 29.1 µM [inhibitor, single point]	–
CCOc1ccc(NC(=O)C2CCN(S(=O)(=O)c3ccc4c(c3)CC(C)N4C(C)=O)CC2)cc1 (stereo not given)	inconclusive: 18.4 µM [inhibitor, partial curve]	–
O=C1Nc2ccccc2Nc2ccc([N+](=O)[O-])cc21	inactive	–
Cn1c(SCc2ccccc2)nccc1=O	inactive	–
COc1cn(CC(=O)Nc2ccc(C)cc2C)c(CN2CCCCC2)cc1=O	inactive	–

SMILES	Potency	activity change, negative = growth inhibition
COc1ccc2c(COC(=O)CNC(=O)C34CC5CC(CC(C5)C3)C4)cc(=O)oc2c1	inconclusive: 29.1 µM [inhibitor, single point]	–
Cc1ccc(-c2nnn(CC(=O)N(Cc3cccs3)C(C(=O)NCC3CCCO3)c3ccco3)n2)o1 (stereo not given)	inactive	–
COC(=O)c1ccc(C)c(NS(=O)(=O)c2ccc(OC)c(OC)c2)c1	inconclusive: 23.1 µM [inhibitor, partial curve]	–
C/[N+]([O-])=C\c1cccc(OCCN2CCN(c3ncc(C(F)(F)F)cc3Cl)CC2)c1	inconclusive: 32.6 µM [inhibitor, partial curve, poor fit]	–
O=C(c1cc(S(=O)(=O)N2CCN(c3ccccc3)CC2)ccc1Cl)N1CCCCCCC1	active: 14.6 µM	–
CC(=O)c1ccc(NC(=O)/C=C/c2ccc(C)o2)cc1	inconclusive: 29.1 µM [inhibitor, single point]	–
COc1cccc(Cn2cc(-c3cccc(C(F)(F)F)c3)nn2)c1	inconclusive: 25.1 µM [inhibitor, single point] and inconclusive: 29.1 µM [inhibitor, single point]	–
C[C@H]1CN([C@@H](C)CO)C(=O)c2cc(Br)cnc2O[C@@H]1CN(C)S(=O)(=O)c1ccccc1	inconclusive: 23.1 µM [inhibitor, single point]	–
Nc1ccc(N2CCCC2)c(S(=O)(=O)Nc2cccc(C(F)(F)F)c2)c1	active: 29.1 µM	–
Cc1ccnc2nc(C(=O)OCC(=O)NC3CCCC(C)C3C)nn12 (stereo not given)	active: 1.46 µM	–
Cc1ccc(C(O)c2ccncc2)cc1 (stereo not given)	inconclusive: 22.4 µM [inhibitor, single point]	–
C=CCn1c(SCC(=O)NC)nnc1C12CC3CC(CC(C3)C1)C2	inactive	–
COC(=O)COc1cccc(NC(=O)c2cccc(C)c2)c1	inactive	–
Nc1ncnc2c1ncn2[C@@H]1O[C@H](C(=O)NS(=O)(=O)c2ccccc2[N+](=O)[O-])[C@@H](O)[C@H]1O	inconclusive: 29.1 µM [inhibitor, single point]	–
O=C(c1ccccc1)c1n[nH]c(-c2ccccc2)cc1=O	inactive	–
COc1ccc(S(=O)(=O)NCC(c2ccc(N(C)C)cc2)N2CCCC2)cc1F (stereo not given)	inconclusive: 18.4 µM [inhibitor, single point]	–
O=S(=O)(c1ccccc1)N1CCC[C@@]2(CCN(c3ccccc3)C2)C1	inconclusive: 18.4 µM [inhibitor, single point]	–
Fc1ccc(C2NCCn3cccc32)cc1 (stereo not given)	inconclusive: 3.66 µM [inhibitor, single point]	–
COc1ccc(CCC(C)N(C)Cc2ccccc2)cc1 (stereo not given)	inconclusive: 29.1 µM [inhibitor, single point]	–
Cc1cc(Br)c(NC(=O)c2ccccc2[N+](=O)[O-])cc1C	inconclusive: 29.1 µM [inhibitor, single point]	–
Cc1onc(-c2ccccc2)c1NC(=O)Nc1ccc(OC(F)F)cc1	inconclusive: 29.1 µM [inhibitor, single point]	–
O=C(CSc1ccc(Br)cc1)Nc1ccc(N2CCOCC2)cc1	inactive	–
CN(C)c1ccc(NC(=O)/C=C/c2ccccc2Cl)cc1	–	inconclusive: -31.7% [inhibitor]
CC#CCOC(=O)c1c(C)nc2sc3c(c2c1N)CC[C@@H](O)C3	active: 10.6 µM	–

SMILES	Potency	activity change, negative = growth inhibition
O=S(=O)(NC1CCCCC1N1CCN(c2ccccc2F)CC1)c1ccc(Cl)cc1 (stereo not given)	inconclusive: 29.1 µM [inhibitor, single point]	–
O=C(c1cc(F)ccc1F)C1CCCN(C(=O)c2ccc(F)cc2Cl)C1 (stereo not given)	inconclusive: 25.9 µM [inhibitor, single point]	–
Cc1cccc(OCC(=O)NCC2(N3CCN(C)CC3)CCCCC2)c1	inconclusive: 20.6 µM [inhibitor, single point]	–
CC1CCCN(C(=O)c2cc3c(-c4ccc(Cl)cc4)nn(C)c3s2)C1 (stereo not given)	inconclusive: 18.4 µM [inhibitor, single point]	–
Cc1nc2ccccc2c2oc(C(=O)NCCCN3CCC(C)CC3)cc12	inconclusive: 20.6 µM [inhibitor, single point]	–
CCc1ccc(OCC(=O)Nc2ccc(Cl)c(-c3nc4cc(C)cc(C)c4o3)c2)cc1	–	inconclusive: -30.7% [inhibitor]
O=c1cc(N2CCc3ccccc3C2)[nH]c(=O)n1C1CCCCC1	inconclusive: 9.2 µM [inhibitor, partial curve]	–
Cc1ccc(Cl)cc1N1CCN(S(=O)(=O)c2ccc3oc(=O)c4ncn(C)c4c3c2)CC1	inactive	–
COc1cc(C(=O)NC(=S)N(C)Cc2ccccc2)cc(OC)c1OC	active: 8.2 µM	–
CN1C(=O)C(c2ccccc2[N+](=O)[O-])C(=O)c2ccccc21 (stereo not given)	inactive	–
Cc1[nH]c2ccc(C(=O)NCCc3ccccc3Cl)cc2c1C	inconclusive: 29.1 µM [inhibitor, single point]	–
Cc1ccc(-c2c[n+](CC(=O)Nc3nc(-c4ccc(F)cc4)cs3)c3n2CCC3)cc1	active: 10.3 µM	–
O=C(COC(=O)c1ccccc1C(=O)N1CCN(c2ccccc2)CC1)Nc1ccc(F)cc1	inconclusive: 18.4 µM [inhibitor, partial curve]	–
CN(C(=O)CN1CCN(c2cnn(-c3ccccc3)c(=O)c2Cl)CC1)C1CCS(=O)(=O)C1 (stereo not given)	inactive	–
CCN1CCN(C(C(=O)NC2CCCCC2)c2ccnc3ccccc23)CC1 (stereo not given)	inactive	–
CC(C)Oc1cccc(C(=O)NC(=S)Nc2ccccc2)c1	inconclusive: 29.1 µM [inhibitor, single point]	–
O=C(Nc1ccc(C(=O)O)cc1)/C(=C\c1ccc(F)cc1)NC(=O)c1ccco1	inconclusive: 0.651 µM [inhibitor, full curve, poor fit]	–
O=S1(=O)CCO[C@H]2Cc3ccccc3[C@H]2N1Cc1ccc(Cl)cc1	inactive and inconclusive: 20 µM [inhibitor, partial curve]	–
C/C(=N/NC(=O)c1cccs1)c1ccc(NC(=O)COc2ccc(Cl)cc2)cc1	inactive	–
Cc1ncoc1C(=O)N1CCOc2ccc(CN3CCN(c4ccccn4)CC3)cc2C1	inconclusive: 18.4 µM [inhibitor, single point]	–
Cc1ccc2c(CC(=O)Nc3cccc(S(=O)(=O)N4CCOCC4)c3)coc2c1	inactive	–
CC(=NO)C1CCC2C3CCC4=CC(=NO)CCC4(C)C3C(=O)CC12C (stereo not given)	active: 16.4 µM	–

Reference: PubChem BioAssay AID686978 (National Center for Advancing Translational Sciences (NCATS), 2013)
